According to PubChem BioAssay AID588855 (National Center for Advancing Translational Sciences (NCATS), 2011):
Screen size: about 410,000 compounds; about 5,000 (1.2%) were called active. This list was built around the results that the source calls inconclusive (neither active nor inactive); the mix of calls is not that of the screen. The call rests on the fitted dose curve; in most records, active means well fitted inhibition curve with a large enough effect; inconclusive means small, poorly fitted or top-dose-only effect; inactive means no such curve, though single readings can be large or run the other way. Potencies of inconclusive entries are doubtful fits and often do not repeat.

Test: qHTS for Inhibitors of TGF-b; further: nearly all actives have a fitted effect of over 65% in size
Details: HepG2 CAGA-GFP TGF-b/SMAD3 reporter, GFP fluorescence, 18 h, TGF-beta stimulated, 500 pg/mL final; series mostly up to 46.1 µM
How it was run: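 Read-out: total well GFP (ex488/em500-530) summed from mean per-cell fluorescence. Cells: HEPG2 CAGA-GFP, 1% FBS DMEM, 18 h at 37 degrees C with 500 pg/mL final TGF-beta. Unstimulated wells served as the full-inhibition control; stimulated DMSO wells = 0%.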
Potency means the concentration at half of the fitted maximal effect; tags describe the fitted curve by direction and shape.

Row | SMILES | Potency
1 | CCO[C@@H]1OC(C(=O)N2CCN(Cc3ccccc3)CC2)=C[C@H](c2csc3ccccc23)[C@H]1CCCO | inconclusive: 28.2 µM [inhibitor, single point]
2 | COC(=O)[C@@H]1C[C@@]2(O)[C@H](O)[C@H](O)[C@H](O)C[C@H]2N1Cc1ccc(-c2ccccc2)cc1 | inconclusive: 35.5 µM [inhibitor, single point]
3 | C/C(=N\NC(=O)c1c(Br)c(C)nn1C)c1cccc(NC(=O)C2CCC2)c1 | inactive
4 | N#Cc1ccc(-c2csc(NC(=O)/C=C/c3cccs3)n2)cc1 | inactive
5 | COc1ccc(C2=Nn3c(nnc3-c3ccccc3F)SC2)cc1OC1CCCC1 | active: 12.6 µM
6 | Cc1ccc(S(=O)(=O)N(C)C)cc1NC(=O)COC(=O)/C(=C/c1ccc(F)cc1)c1cccs1 | inconclusive: 35.5 µM [inhibitor, single point]
7 | Cc1nc(-c2ccc(F)cc2)c(CC(=O)N(C)CC(=O)Nc2ccc(Cl)c(C(F)(F)F)c2)s1 | active: 17.8 µM
8 | CCN(C(=O)COC(=O)C(c1ccccc1)c1ccccc1)c1c(N)n(Cc2ccccc2)c(=O)[nH]c1=O | inconclusive: 35.5 µM [inhibitor, single point]
9 | CC1Cc2cc(S(=O)(=O)N3CCN(c4cccc(Cl)c4)CC3)ccc2N1C(=O)C1CC1 (stereo unspecified) | inactive
10 | Cc1cc(C)n2nc(SCC(=O)N3CCC(C(=O)O)CC3)nc2n1 | inconclusive: 2.51 µM [inhibitor, partial curve, poor fit]
11 | O=C(Nc1ccc(O)cc1)c1cccc(Oc2ccc([N+](=O)[O-])cc2)c1 | inactive
12 | O=C(NNC(=O)c1csc(-c2cnccc2C(F)(F)F)n1)c1ccc(C(F)(F)F)cc1 | inconclusive: 20 µM [inhibitor, partial curve, poor fit]
13 | Cc1cc(NC(=O)CSc2nc3c(C)c(C)ccc3cc2C)no1 | inactive
14 | COc1cc(OC)cc(C(=O)NCCOC23CC4CC(CC(C4)C2)C3)c1 | inconclusive: 6.31 µM [inhibitor, single point]
15 | CSc1ccccc1NC(=O)COc1ccc(S(=O)(=O)N2CCCC2)cc1 | inconclusive: 6.31 µM [inhibitor, single point]
16 | CCOC(=O)c1c(C)n(C)c2ccc(OCC(O)Cn3c(C)nc4ccccc43)cc12 (stereo unspecified) | inconclusive: 17.8 µM [inhibitor, single point]
17 | CC(C(Sc1ccccc1N)c1ccccc1)[N+](=O)[O-] (stereo unspecified) | inconclusive: 35.5 µM [inhibitor, single point]
18 | CCOc1ccc(C(=O)O/N=C(\N)c2ccccn2)cc1 | inactive
19 | CS(=O)(=O)N1CCN(C(=O)Cc2ccc(Br)cc2)CC1 | inactive
20 | O=S(=O)(c1ccccc1Br)N(CC(O)COCc1ccccc1)C1CC1 (stereo unspecified) | inactive
21 | CC(C)(CNC(=O)c1ccc(Cl)c(S(=O)(=O)N2CCc3ccccc3C2)c1)N1CCOCC1 | inconclusive: 2.51 µM [inhibitor, full curve, poor fit]

Row | SMILES | Potency
22 | Cc1ccc(C(=O)NCC(=O)OCC(=O)c2ccc(Br)s2)cc1 | inconclusive: 35.5 µM [inhibitor, single point]
23 | COc1cc(CCC(=O)NCc2ccc3c(c2)CCN3C(=O)c2ccc(F)cc2)cc(OC)c1OC | inconclusive: 3.55 µM [inhibitor, single point]
24 | CCc1nc2ccccc2c(C(=O)OCC(=O)N(CC(C)C)c2c(N)n(Cc3ccccc3)c(=O)[nH]c2=O)c1C | inconclusive: 35.5 µM [inhibitor, single point]
25 | O=c1c(Cl)c(NCC2CCCO2)cnn1C12CC3CC(CC(C3)C1)C2 (stereo unspecified) | inconclusive: 3.16 µM [inhibitor, partial curve]
26 | Cc1cc(C)c2nc(N3CCC(C(=O)N4CCCC4)CC3)sc2c1 | inconclusive: 39.8 µM [inhibitor, partial curve, poor fit]
27 | Cc1ccc2cc3c(N)nn(C(=O)c4cccc(F)c4)c3nc2c1 | inconclusive: 5.62 µM [inhibitor, full curve]
28 | O=C(CN1CCN(c2nc(-c3ccc(F)cc3)cs2)CC1)Nc1ccc2c(c1)OCO2 | inconclusive: 35.5 µM [inhibitor, single point]
29 | Cc1ccc(-c2csc(N(CCO)CCCn3c(C(F)(F)F)nc4cc(C(F)(F)F)ccc43)n2)cc1 | active: 7.08 µM
30 | O=C1C=C(c2ccc(-c3ccccc3)c(F)c2)C[C@@H](c2ccc(Cl)cc2)C1 | inactive
31 | CCN1CCN(S(=O)(=O)c2cc(OCC(=O)NC3CCCCC3)c(C)cc2Cl)CC1 | inconclusive: 35.5 µM [inhibitor, single point]
32 | COc1cc(NC(=O)c2cc(C)nc3c2c(C)nn3-c2ccccc2Cl)cc(OC)c1 | inconclusive: 35.5 µM [inhibitor, single point]
33 | O=c1[nH]c2ccccc2cc1-c1nnn(-c2ccccc2)n1 | inactive
34 | O=c1c2ccccc2n(CC(O)CN2CCCCC2)c2ccccc12 (stereo unspecified) | inactive
35 | O=C1CC[C@@H]2CC3(C[C@@H]4CCN1[C@H]24)Nc1cc(Cl)ccc1NC3=NC1CCCCC1 (stereo partly specified) | inconclusive: 10 µM [inhibitor, partial curve, poor fit]
36 | Cc1ccc(-n2c(Cc3cccn3C)nnc2SCC(=O)N2CCc3ccccc32)cc1 | inconclusive: 8.91 µM [inhibitor, partial curve, poor fit]
37 | Cc1ccccc1-c1noc(-c2ccccc2C(=O)NCC2CCCO2)n1 (stereo unspecified) | inactive
38 | c1ccc(Nc2nc(-c3ccncc3)cs2)cc1 | inactive
39 | Fc1ccc(-c2noc3ncnc(NCC4CCN(Cc5ccc(Cl)cc5)CC4)c23)cc1 | inconclusive: 17.8 µM [inhibitor, partial curve, poor fit]
40 | c1ccc(COc2cccc(-c3cc4nc(NCCCn5ccnc5)ccn4n3)c2)cc1 | inconclusive: 11.2 µM [inhibitor, single point]
41 | COCCNC(=O)c1cc2c(c(-c3cccc(-c4cc5ccccc5o4)c3)n1)[C@@H](CCO)N(S(=O)C(C)(C)C)C2 (stereo partly specified) | inconclusive: 35.5 µM [inhibitor, single point]
